Test results from ChEMBL document CHEMBL1157539, “Thousands of chemical starting points for antimalarial lead identification” (Nature, 2010).
The full ranking holds about 13,000 compounds; the median of “IFI” is about 4, and the highest 2% start at about 17. This is one part of the list.

experiment: GSK_TCMDC: Inhibition Frequency Index (IFI). The number of non-kinase HTS assays where a compound showed > 50 % inhibition, expressed as a percentage of the number of such assays in which the compound was tested (-0 is zero); assay type: functional

In order of falling IFI:
1. Oc1ccc(CCNc2nc(NCCOc3ccccc3-c3ccccc3)nc(N3CCNCC3)n2)cc1  20%
2. CCN1CCC(N(Cc2ccc(-c3ccc(C(F)(F)F)cc3)cc2)C(=O)Cn2nc(C)c(=O)cc2SCc2ccc(F)cc2)CC1  19.6%
3. COc1cc2nc(N3CCC(CNCc4ccc(-c5ccc(C(F)(F)F)cc5)cc4)CC3)nc(N)c2cc1OC  17.1%
4. CC(C)C(C(=O)Nc1ccc(S(=O)(=O)N(C)C)cc1)c1ccc(Cl)cc1 (stereo not drawn)  16.2%
5. COc1ccc2ccccc2c1CCCCN1CCN(CC(c2ccc(F)cc2)N2CCN(C(C)C)CC2)CC1 (stereo not drawn)  14.7%
6. C(=C(c1cccs1)c1cccs1)c1ccc(CNC2CCN(Cc3ccccc3)CC2)cc1  14.4%
7. CC(C)(C)c1ccc(CN(C[C@@H](O)CNS(=O)(=O)c2cc(Cl)cc(Cl)c2)C(C)(C)C)cc1  13.9%
8. Nc1nc(N)c2c(ccc3[nH]c(-c4ccccc4Cl)nc32)n1  12.1%
9. CCCCCN1CCCC(CNS(=O)(=O)c2ccc(C(=O)Nc3ccc(C(F)(F)F)cc3)cc2)C1 (stereo not drawn)  10.6%
10. Cc1cccc(C(=O)NC(NC(=S)Nc2ccc([N+](=O)[O-])cc2)C(Cl)(Cl)Cl)c1 (stereo not drawn)  10.3%
11. Nc1nccc2ccc(-c3cccc4ncccc34)cc12  10%
12. CCN(CC)CCN(Cc1ccc(-c2ccc(C(F)(F)F)cc2)cc1)C(=O)Cn1c(CCc2ccc(F)c(F)c2)nc(=O)c2ccccc21  9.77%
13. O=C(Nc1ccccc1)N(Cc1cccc(-c2ccc(CNCc3ccc4c(c3)OCO4)cc2)c1)C1CCN(Cc2ccccc2)CC1  9.49%
14. CC(C)CCNc1nc2ccccc2nc1Nc1cccc(C(F)(F)F)c1  9.4%
15. Nc1c2ccccc2nc2ccc(Cl)cc12  9.03%
16. CCS(=O)(=O)Nc1ccc2c(c1)/C(=C(/Nc1ccc(CN3CCCCC3)cc1)c1ccccc1)C(=O)N2  8.28%
17. CCC[C@@H](/C=N/N(C)C(=O)OC(C)(C)C)NC(=O)[C@H](CC(C)C)NC(=O)c1cc2cccc(OC)c2o1  8.18%
18. COc1ccc2nc(Nc3nc(-c4ccccn4)cs3)sc2c1  8.06%
19. COc1ccc(Cl)cc1S(=O)(=O)Nc1cccc(CCN2CCC(N3CCCCC3)CC2)c1  7.81%
20. COc1ccccc1-c1cccc(Nc2c(Nc3ccc(Cl)cc3)c(=O)c2=O)c1  7.21%
21. CCOc1ccc(-c2n[nH]c(C(F)(F)F)c2-c2ccccc2OC)c(O)c1  7.04%
22. N=C(/N=C(/NCCCCCCN/C(=N\C(=N)Nc1ccc(Cl)cc1)N1CCOCC1)N1CCOCC1)Nc1ccc(Cl)cc1  6.72%
23. CCN(CC)CCn1c(=N)n(CC(O)c2ccc(Cl)c(Cl)c2)c2ccccc21 (stereo not drawn)  6.52%
24. CON=Cc1ccn(-c2ccc(O)c3c2C[C@H]2C[C@H]4[C@H](N(C)C)C(O)=C(C(N)=O)C(=O)[C@@]4(O)C(O)=C2C3=O)c1  6.48%
25. Cc1cccc(NC(=O)Nc2cccc(-c3ccc(-c4nc5cc(C(F)(F)F)ccc5[nH]4)cc3)c2)c1  6.45%
26. c1cc(C2=NC3CCCCC3N2)ccc1OCCCCCOc1ccc(C2=NC3CCCCC3N2)cc1 (stereo not drawn)  6.16%
27. O=C(Nc1ccc2c(c1)CCC2)N[C@H]1CCN(Cc2ccc(OCCCN3CCCCC3)cc2)C1  5.63%
28. NC1CCCN(Cc2ccc(-c3ccc(-c4nc5ccccc5[nH]4)s3)cc2)C1 (stereo not drawn)  5.63%
29. c1ccc(-c2ccc3c(Nc4ccc5[nH]ncc5c4)ccnc3c2)nc1  5.59%
30. CCN(CC)CCCn1c(N)c(-c2nc3ccccc3[nH]2)c2nc(C#N)c(C#N)nc21  5.52%
31. CC(CN(C)C)C(=O)Nc1cccc(-c2ccc(-c3nc4ccccc4[nH]3)cc2)c1 (stereo not drawn)  5.45%
32. CC(C)C[C@H](NC(=O)[C@H](Cc1ccccc1)N(C[C@H](Cc1ccccc1)NC(=O)OC(C)(C)C)C(=O)C(F)(F)F)C(=O)NC1CCN(Cc2ccccc2)CC1  5.19%
33. CCN1CCC(N(CCCCCCc2ccc(C(F)(F)F)cc2)C(=O)Cn2c(CCc3cccc(F)c3F)cc(=O)c3ccccc32)CC1  5.19%
34. COc1ccc(CC(Cc2ccc(OC)cc2)NCC(O)c2cccc(Cl)c2)cc1 (stereo not drawn)  4.86%
35. CC(=O)c1c(CC(=O)O)c2ccccc2n1O  4.83%
36. Cn1cnc2c(Nc3ccncc3)nc(-c3ccc4ccccc4c3)nc21  4.79%
37. CN(C)Cc1ccc(-c2ccc(NC(=O)c3ccc4c(=O)n(Cc5ccoc5)cnc4c3)cc2)cc1  4.72%
38. CCN1CCCC(Nc2ccnc3cc4ccccc4cc23)C1 (stereo not drawn)  4.41%
39. CN1CCN(CCCNCc2ccc(Nc3nccc(Nc4ccc(Oc5ccccc5)cc4)n3)cc2)CC1  4.41%
40. CCc1cc([C@H]2O[C@@H](n3cnc4c(NCC(c5ccccc5)c5ccccc5)nc(NCCNc5ccccn5)nc43)[C@H](O)[C@@H]2O)on1  4.38%
41. Cc1sc(CNCCCNc2cc(=O)c3ccccc3[nH]2)c(I)c1C  4.29%
42. O=[N+]([O-])c1cccc(CNC2CCN(Cc3ccc(-c4ccccc4)cc3)CC2)c1  4.29%
43. Cc1cc(C)cc(OCC(O)CN(Cc2cc(Cl)cc(Cl)c2)C(=O)Nc2ccc(Cl)cc2)c1 (stereo not drawn)  4.17%
44. CCOc1ccc(C(=O)Nc2cc3c(c(C(F)(F)F)c2)CCNC3)cc1Cl  3.91%
45. CC(C)(C)C(=O)Nc1ccc(N2CCN(C(c3ccccc3)c3ccccc3)CC2)c(Cl)c1  3.51%
46. CC1(C)NC(N)=NC(=N)N1OCCCCCOc1ccccc1  3.5%
47. Cc1noc(C)c1-c1cccc(C(=O)NC2CCN(CCNC(=O)C(c3ccccc3)c3ccccc3)CC2)c1  3.5%
48. O=C(Nc1cccc(CN2CCCN(Cc3ncc[nH]3)CC2)c1)c1cc2ccccc2s1  3.05%
49. COc1ccc2nc(C)cc(N/N=C/c3ccccc3[N+](=O)[O-])c2c1  2.94%
50. Cc1cccc2nc(C3CCN(CC4CCN(C(=O)/C=C/c5ccc(Cl)c(Cl)c5)CC4)CC3)[nH]c12  2.9%
51. CC(=O)Nc1ccc(Nc2cc(C)nc(Nc3ccc(NC(C)=O)cc3)n2)cc1  2.88%
52. COc1ccc(NC(=O)/C=C/c2ccccc2Cl)cc1OCCN1CCC(c2nc3ccccc3[nH]2)CC1  2.86%
53. CN(Cc1cccc(F)c1)C1CCN(c2cc(NC(=O)c3ccc(F)cc3)ccn2)C1 (stereo not drawn)  2.86%
54. O=C(Nc1cccc(Cl)c1Cl)NC1CCN(Cc2cccc(O)c2)CC1  2.33%
55. CC(C)c1ccc(O)cc1Nc1ccnc2ccc(C(F)(F)F)cc12  2.31%
56. CCNc1cc(C(=O)N[C@@H](Cc2ccccc2)[C@H](O)CNC23CCC(CC2)CC3)cc(N2CCCCS2(=O)=O)c1  2.22%
57. COc1cc(C)nc2ccc(NC(=O)Nc3ccc4nc(C)cc(OC)c4c3)cc12  2.19%
58. O=C(NCc1cccc(F)c1)c1ccc(O)c(-c2cc(Cl)cc(Cl)c2)c1  2.19%
59. CCCCCCN1CCC(CNCc2cccc([N+](=O)[O-])c2)CC1  2.16%
60. Cc1nc2ccc3ccc(CNc4ccc(C#N)cc4)cc3c2c(=O)[nH]1  2.13%
61. Nc1nc(N)c2c3c(cnc2n1)CCCC3  2.13%
62. O=C(c1ccc([N+](=O)[O-])o1)N1CCN(c2nc3c(F)cc(F)cc3s2)CC1  2.13%
63. O=C(c1ccc([N+](=O)[O-])o1)N1CCN(c2ccccc2)CC1  2.11%
64. O=C(Nc1nc2cc(S(=O)(=O)NCCc3ccc(F)cc3)ccc2n1CCCn1ccnc1)c1ccc(Cl)cc1  2.03%
65. Fc1cccc(Cn2ncc3cc(Nc4ncnc5sc(C#Cc6ncc[nH]6)cc45)ccc32)c1  1.74%
66. O=S(=O)(c1ccc(OC(F)(F)F)cc1)C1CC2CCC(C1)N2S(=O)(=O)c1ccc(Cl)c(C(F)(F)F)c1 (stereo not drawn)  1.72%
67. N#Cc1ccc2c(c1)CN(C1CCC(NC(=O)/C=C/c3cc(C(F)(F)F)cc(C(F)(F)F)c3)CC1)CCC2 (stereo not drawn)  1.64%
68. COc1ccc2c(c1)S(=O)(=O)N=C(N1CCCC1c1ccc(Cl)c(Cl)c1)N2C (stereo not drawn)  1.59%
69. COc1ccc(CON2C(=N)N=C(N)NC2(C)C)cc1OC  1.47%
70. O=C(C=Cc1ccccc1)Nc1ccc(C#CC=Cc2ccc(NC(=O)C=Cc3ccccc3)cc2)cc1  1.45%
71. CCOC(=O)C(C)(C)Oc1ccc(CN(Cc2ccc(CC(C)C)cc2)C(=O)Nc2ccc(F)cc2F)c(OC)c1  1.45%
72. CS(=O)(=O)CCNCc1cccc(-c2cc3c(Nc4ccc(OCc5ccccc5)cc4)ncnc3cn2)c1  1.42%
73. COc1ccc(C2CC(c3cccs3)=NN2C(=O)c2ccccc2)cc1OC (stereo not drawn)  1.39%
74. Cc1cc(Nc2cc(Cl)cc(Cl)c2)nc(N)n1  1.35%
75. COc1cc2cc(C(=O)Nc3ccccc3)c(N)nc2cc1OC  1.28%
76. Cc1ccc(-n2nc3ccc(NC(=O)c4ccc([N+](=O)[O-])o4)cc3n2)cc1C  0.77%
77. Cc1cccc(OCC(=O)Nc2cccc(NC(=O)COc3cccc(C)c3)n2)c1  0.76%
78. Cc1nc2ccc(S(=O)(=O)Nc3ccc(C(=O)N[C@@H](CCC(=O)O)C(=O)O)cc3)cc2c(=O)[nH]1  0.76%
79. CCOc1cc(/C=N/Nc2nc3ccccc3[nH]2)ccc1OCc1ccc([N+](=O)[O-])cc1  0.75%
80. CCN(CC)CCNc1c2ccc(Cl)cc2nc2ccc(OC)nc12  0.75%
81. N#Cc1ccc(N(CCOC(=O)c2ccccc2)Cc2ccccc2C(F)(F)F)cc1C(F)(F)F  0.69%
82. CCOC(=O)NC1=NC(C)(C)N(OCc2cccc3c2ccc2ccccc23)C(NC(=O)OCC)=N1  -0%
83. COc1ccc(-c2cccc(NC(=O)c3cccc(C#N)c3)c2)cc1CN1CCC(O)CC1  -0%
84. Cc1ccc(-c2nc(N3CCN(C(=O)c4ccco4)CC3)c3ccc(Cl)cc3n2)cc1  0%
85. Cc1cccc(C)c1CNc1ccnc2ccccc12  -0%
86. COc1cccc(NC(=O)[C@H](C(C)C)n2c(=O)[nH]c3ccccc3c2=O)c1  0%
87. CCCCOc1cc2ncc(C(=O)OCC)c(O)c2cc1OCCCC  0%
88. c1ccc2c(c1)CN(CC1CC1)CC1(CCN(Cc3c[nH]c4cnccc34)CC1)O2  -0%
